The values below come from paper PMC4336329 (PLoS ONE, 2015).

Structures are written as SMILES. In all, about 310,000 compounds went through this assay and about 14,000 (4.5%) showed an effect of 50% or more. Effects have a minus sign here. This is one part of the list.
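Note: peak tail current of the secondary pulse compared with the same well before compound.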

The target of this experiment is human ether-à-go-go-related gene (hERG) potassium channel (human, UniProt Q12809). Briefly: primary screen, population patch clamp on CHO cells stably expressing hERG.
Sequence of human ether-à-go-go-related gene (hERG) potassium channel (Q12809 whole entry, looked up): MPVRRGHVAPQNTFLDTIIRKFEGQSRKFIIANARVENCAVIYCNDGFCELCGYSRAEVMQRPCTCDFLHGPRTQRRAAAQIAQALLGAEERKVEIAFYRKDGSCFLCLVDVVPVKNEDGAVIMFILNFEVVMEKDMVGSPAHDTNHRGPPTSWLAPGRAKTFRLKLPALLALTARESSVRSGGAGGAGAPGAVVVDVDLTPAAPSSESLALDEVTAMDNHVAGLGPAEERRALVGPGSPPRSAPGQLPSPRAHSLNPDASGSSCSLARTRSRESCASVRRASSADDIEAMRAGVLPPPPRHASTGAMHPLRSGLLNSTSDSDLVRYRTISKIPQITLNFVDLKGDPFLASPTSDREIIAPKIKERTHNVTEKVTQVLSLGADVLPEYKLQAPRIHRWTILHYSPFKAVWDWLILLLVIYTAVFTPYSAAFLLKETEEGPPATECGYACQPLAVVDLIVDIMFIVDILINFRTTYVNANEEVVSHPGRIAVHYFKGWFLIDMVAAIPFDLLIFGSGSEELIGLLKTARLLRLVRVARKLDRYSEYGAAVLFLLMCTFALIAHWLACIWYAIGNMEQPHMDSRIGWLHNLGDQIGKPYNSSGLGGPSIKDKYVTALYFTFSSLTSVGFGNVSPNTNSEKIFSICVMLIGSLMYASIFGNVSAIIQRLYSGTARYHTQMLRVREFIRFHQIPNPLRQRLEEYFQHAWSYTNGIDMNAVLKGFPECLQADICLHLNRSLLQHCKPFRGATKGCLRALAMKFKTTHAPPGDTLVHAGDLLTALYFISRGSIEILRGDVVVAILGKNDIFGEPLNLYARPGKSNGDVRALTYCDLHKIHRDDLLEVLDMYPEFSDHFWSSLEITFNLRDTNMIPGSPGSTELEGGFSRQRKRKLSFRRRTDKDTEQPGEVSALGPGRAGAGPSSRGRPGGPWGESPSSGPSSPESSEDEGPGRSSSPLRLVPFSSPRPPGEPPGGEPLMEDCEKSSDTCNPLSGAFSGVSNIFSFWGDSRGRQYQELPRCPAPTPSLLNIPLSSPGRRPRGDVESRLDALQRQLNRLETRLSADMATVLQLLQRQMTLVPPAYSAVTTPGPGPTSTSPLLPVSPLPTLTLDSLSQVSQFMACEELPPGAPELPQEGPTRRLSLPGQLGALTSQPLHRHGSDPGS
In the case of `CCC1(CC)Cc2ccccc2-c2nc(NCCCO)[nH]c(=O)c21`, the “hERG current change (%, negative = inhibition) at 10uM” value stood at 7.05%. Next, `COc1ccc(Br)cc1CN1CCN(S(=O)(=O)Cc2ccccc2)CC1`: -5.27%; `CCOc1ccc(C2c3c(oc4cc(C)c(C)cc4c3=O)C(=O)N2CCCN2CCOCC2)cc1` (stereo not drawn): -21.6%; `CCc1cc(C(=O)NNC(=S)Nc2cc(C)ccc2C)cs1`: 6.73%. In the case of `CCCC1=[N+](CC)CCn2c(C)ccc21.[Br-]`, the “hERG current change (%, negative = inhibition) at 10uM” value came to 10.9%. `C=CCNc1ncnc2c1cnn2-c1ccc(Cl)cc1`: the “hERG current change (%, negative = inhibition) at 10uM” value was 9.53%. Consider `Cc1onc(-c2ccccc2)c1C(=O)N/N=C/c1cccs1`, for which the “hERG current change (%, negative = inhibition) at 10uM” value was 0.544%. Take `Cc1ccccc1NC(=O)CCC(=O)N/N=C/c1ccncc1`: the “hERG current change (%, negative = inhibition) at 10uM” value turned out to be 23.2%. Turning to `Cc1cnc(C(=O)OC(C)C(=O)Nc2ccc3c(c2)OCCO3)cn1` (stereo not drawn), the “hERG current change (%, negative = inhibition) at 10uM” value stood at 0.452%. As to `Cc1cc2c(Nc3ccc(C(=O)O)cc3)ncnc2s1.Cl`, the “hERG current change (%, negative = inhibition) at 10uM” value worked out at 25.1%.

In the case of `Cc1ccc(OCCNC(=O)c2ccc3c(c2)OCO3)cc1`, the “hERG current change (%, negative = inhibition) at 10uM” value is listed as 2.05%.

With `COc1ccc(S(=O)(=O)N2CC3CC(C2)c2cccc(=O)n2C3)cc1` (stereo not drawn), the “hERG current change (%, negative = inhibition) at 10uM” value stood at 0.671%.

Consider `Cc1ccc(C)c(NC(=S)NCc2ccc3[nH]c4c(c3c2)CCCC4)c1`, for which the “hERG current change (%, negative = inhibition) at 10uM” value stood at 7.84%. The same measure for `CN1C2CCC1/C(=C/c1ccccn1)C(=O)/C2=C\c1ccccn1`: -24.4%; for `CC(C)Cn1c(SCC(=O)N2CC(=O)Nc3ccccc32)nc2ccccc21`: 4.27%; for `CCCCN(Cc1cc2ccccc2[nH]c1=O)C(=O)c1ccccn1`: 13.5%. In the case of `Cc1c(CC(=O)N2CCN(C(=O)C3COc4ccccc4O3)CC2)c(=O)oc2c(O)c(O)ccc12` (stereo not drawn), the “hERG current change (%, negative = inhibition) at 10uM” value is on record as -0.208%. With `CC(=O)Oc1ccc(C(=O)[C@H]2[C@H]3C(=O)N(c4ccc(C)cc4)C(=O)[C@H]3[C@@H]3C=CC=NN32)cc1`, the “hERG current change (%, negative = inhibition) at 10uM” value turned out to be 10.7%. Consider `COc1ccc(C(=O)NCC(=O)NCCc2c[nH]c3ccccc23)cc1OC`, for which the “hERG current change (%, negative = inhibition) at 10uM” value was -3.02%. The same measure for `O=C(NCCOc1ccccc1)C(=O)c1c[nH]c2ccccc12`: -2.05%; for `Cc1cc(=O)oc2c(C)c3occc3cc12`: 12.5%; for `O=C(NC(Cc1c[nH]c2ccccc12)C(=O)O)c1cccs1` (stereo not drawn): 18.6%.

In the case of `CCOC(=O)C1C(=O)CC(C)(O)C(C(=O)OCC)C1c1cc(Br)ccc1OC` (stereo not drawn), the “hERG current change (%, negative = inhibition) at 10uM” value is recorded as 7.34%. For `Cc1ccc(S(=O)(=O)CCC(=O)OCC(=O)NCC(=O)Nc2cccc(C)c2C)cc1`, the “hERG current change (%, negative = inhibition) at 10uM” value is listed as 6.9%. Next, `Cc1ccc(NC(=O)c2ccc3nc[nH]c3c2)c(O)c1`: -2.67%. `O=C1CC(c2ccccc2)C(=O)N1c1cccc(O)c1` (stereo not drawn): the “hERG current change (%, negative = inhibition) at 10uM” value is listed as -19.3%. In the case of `Cc1ccc(NC(=S)NCc2ccc3c(c2)OCO3)cc1`, the “hERG current change (%, negative = inhibition) at 10uM” value amounted to 2.97%. For the compound `FC(F)(F)c1cc(-c2ccco2)nc(-n2cnc3ccccc32)n1`, the “hERG current change (%, negative = inhibition) at 10uM” value was -1.12%. `CCc1ccc(CN(C)C(C)C(=O)NCc2ccccc2)cc1` (stereo not drawn): the “hERG current change (%, negative = inhibition) at 10uM” value was -23.5%.

Turning to `O=C(Nc1nnc(-c2ccc(Cl)s2)o1)C1CCCCC1`, the “hERG current change (%, negative = inhibition) at 10uM” value was found to be 5.74%. The same measure for `COc1ccc(S(=O)(=O)N2CCC(NC(=O)c3cccc(F)c3)CC2)cc1`: 15.4%; for `Cc1c(Cl)cccc1NC(=O)NCc1ccc(C)n1C`: 10%. For the compound `COc1ccc(CN(C)CC(O)COC(c2ccccc2)c2ccccc2)c(OC)c1OC` (stereo not drawn), the “hERG current change (%, negative = inhibition) at 10uM” value is given as -76.7%. For the compound `C=C(C)COc1ccc2c(C)c(C)c(=O)oc2c1OCC(=C)C`, the “hERG current change (%, negative = inhibition) at 10uM” value is 7.58%.

For the compound `COc1cccc(OC)c1C(=O)NC(=S)Nc1ccc2oc(=O)ccc2c1`, the “hERG current change (%, negative = inhibition) at 10uM” value is 6.35%. Take `COC(=O)c1sccc1NC(=O)c1cc(OC)cc(OC)c1`: the “hERG current change (%, negative = inhibition) at 10uM” value is given as -3.2%. Consider `COc1ccc2[nH]c(=O)c(CN(CCO)C(=O)c3cccs3)cc2c1`, for which the “hERG current change (%, negative = inhibition) at 10uM” value is recorded as -6.12%. With `COc1ccc(CC(=O)NCC(=O)NCc2cc(=O)n(C)c(=O)n2C)cc1`, the “hERG current change (%, negative = inhibition) at 10uM” value was 14.3%.

Regarding `CCN=C1S/C(=C\c2cc(Br)c(O)c(OC)c2)C(=O)N1CC`, the “hERG current change (%, negative = inhibition) at 10uM” value is listed as -8.02%. On to `CC1(C)C=Cc2c(ccc(-c3coc4cc(O)ccc4c3=O)c2O)O1`, for which the “hERG current change (%, negative = inhibition) at 10uM” value is -1.86%. `CN1CCN(CC(=O)N2c3ccccc3Sc3ccccc32)CC1`: the “hERG current change (%, negative = inhibition) at 10uM” value is -13.7%. Regarding `C=CCNC(=O)C(=O)c1c(-c2ccccc2)[nH]c2ccccc12`, the “hERG current change (%, negative = inhibition) at 10uM” value is reported as 2.13%. For `CN(CC(=O)Nc1ccc(F)c(F)c1F)C(=O)c1cc(-c2ccncc2)nc2ccccc12`, the “hERG current change (%, negative = inhibition) at 10uM” value is recorded as -47.1%.

As for `COC(=O)c1c(C)oc2ccc(N(C(=O)c3ccncc3)S(=O)(=O)c3ccccc3)cc12`, the “hERG current change (%, negative = inhibition) at 10uM” value is listed as -17.3%.

`CC(=O)NC1(C(F)(F)F)C(=O)Nc2c1c(=O)n(C)c(=O)n2C` (stereo not drawn): the “hERG current change (%, negative = inhibition) at 10uM” value is 5.62%.
